# Measurements from publication PMC6919601, “Identification of Plasmodium dipeptidyl aminopeptidase allosteric inhibitors by high throughput screening” (PLoS ONE, 2019).
# About 230 (0.21%) of roughly 110,000 compounds showed an effect of 50% or more. Some of the results follow.
# Target: DPAP1 (Plasmodium falciparum, UniProt Q8IIJ9)
# Experiment: primary screen, percent inhibition; read by cleavage of a fluorogenic dipeptide substrate; higher = more effect of the substance
# Design: species or system P. falciparum D10 trophozoite lysates; single well
# 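Further: 30 min substrate incubation versus DMSO and 10 µM JCP410 controls.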
# Sequence of DPAP1 (Q8IIJ9 whole entry, looked up): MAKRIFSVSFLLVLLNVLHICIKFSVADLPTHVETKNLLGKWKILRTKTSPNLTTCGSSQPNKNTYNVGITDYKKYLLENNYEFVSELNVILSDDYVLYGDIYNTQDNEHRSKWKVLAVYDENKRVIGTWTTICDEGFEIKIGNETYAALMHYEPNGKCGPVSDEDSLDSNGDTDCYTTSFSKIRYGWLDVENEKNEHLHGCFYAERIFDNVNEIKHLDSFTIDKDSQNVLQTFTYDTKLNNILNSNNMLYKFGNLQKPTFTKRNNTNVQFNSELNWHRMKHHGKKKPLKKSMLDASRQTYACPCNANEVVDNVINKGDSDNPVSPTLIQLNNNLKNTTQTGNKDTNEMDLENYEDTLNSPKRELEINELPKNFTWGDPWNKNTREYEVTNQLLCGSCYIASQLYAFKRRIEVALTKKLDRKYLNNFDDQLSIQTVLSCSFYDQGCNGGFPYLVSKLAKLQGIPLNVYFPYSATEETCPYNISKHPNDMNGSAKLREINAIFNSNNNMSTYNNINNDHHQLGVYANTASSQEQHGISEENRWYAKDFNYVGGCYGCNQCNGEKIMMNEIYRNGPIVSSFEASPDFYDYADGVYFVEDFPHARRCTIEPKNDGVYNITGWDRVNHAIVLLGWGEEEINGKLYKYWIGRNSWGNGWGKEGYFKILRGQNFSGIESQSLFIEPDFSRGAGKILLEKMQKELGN
row,SMILES,% Inhibition @ 10 uM
1,O=C1OC(c2ccc(Br)o2)=N/C1=C\c1cccc(Cl)c1Cl,-5.6%
2,O=C(NCc1ccccc1)/C(O)=C/C(=O)c1ccccc1,5.61%
3,Cc1ccc(Cl)cc1N(CC(=O)N1CCN(Cc2ccccc2)CC1)S(=O)(=O)c1ccccc1,-1.24%
4,COc1cccc(/C=C(\C#N)C(N)=O)c1,1.91%
5,COc1cc(C(=O)Nc2ccc3c(c2)CCC3)ccc1OC(F)F,2.4%
6,NC(=O)CC(NC(=O)c1ccco1)C(=O)O (centres unmarked),-3.65%
7,Cc1c2cnn(CC(=O)NC(C)(C)C)c(=O)c2c(C)n1Cc1ccccc1,2.84%
8,C=C(C)C(=O)N1C(=O)OCC1c1ccccc1 (centres unmarked),-0.988%
9,O=C1c2ccc(Br)cc2C(=O)N1c1ccc(Cl)cc1,-2.6%
10,O=C(C(Cc1ccccc1)N1C(=O)C2C3c4ccccc4C(c4ccccc43)C2C1=O)N1CCOCC1 (centres unmarked),0.685%
11,Clc1cccc(Cl)c1/C=N/n1cnnc1,9.21%
12,O=C(Nc1ccc2c(c1)OCO2)c1ccccc1Cl,-5.84%
13,CNC(=O)C1CCN(c2nnc(C)c3c(C)n(-c4ccc(Cl)cc4)nc23)CC1,6%
14,CCn1cnc2sc(C(=O)NCC3COc4ccccc4O3)c(C)c2c1=O (centres unmarked),-1.48%
15,COc1ccc(CCNC(=O)COc2ccc(S(=O)(=O)NC3CCCCC3)cc2)cc1,-1.1%
16,COCCN(Cc1ccc(C)c(Br)c1)S(=O)(=O)c1cc(C(=O)OC)n(C)c1,-2.83%
17,c1ccc(-c2nonc2NCn2cnnn2)cc1,3.04%
18,CCOc1ccccc1C(=O)Nc1ccc(S(=O)(=O)Nc2nccs2)cc1,-3.21%
19,Cn1nc(-c2ccc(OCC(=O)N3CCN(Cc4ccccc4)CC3)cc2)c2ccccc2c1=O,0.315%
20,O=C(O)CCC(=O)c1cccc2ccccc12,-0.744%
21,OCC1CCCCN1CC(O)COc1ccc(Cl)cc1 (centres unmarked),0.0792%
22,CCC(C)NC(=O)c1ccc(-c2nc(COc3ccccc3)c(C)o2)cc1 (centres unmarked),3.64%

row,SMILES,% Inhibition @ 10 uM
1,COC(=O)C1=CN(C)C=C(C(=O)OC)C1c1cccc(OC)c1,0.238%
2,COc1cc(/C=C2/C(=N)N3OC(C)=CC3=NC2=O)cc(Cl)c1OCCCOc1ccccc1,-1.43%
3,Cc1[nH]c2ccc(C(=O)NCCC3=CCCCC3)cc2c1C,-5.09%
4,O=Cc1cn(CC(=O)O)c2ccccc12,3.24%
5,O=C(c1ccccc1)c1ccccc1NC(=O)C12CC3CC(CC(C3)C1)C2,0.962%
6,Nc1ccc(-c2nc3ccccc3s2)c(O)c1,5.66%
7,Cc1nc2nc(NCc3ccc(C(C)C)cc3)nn2c(O)c1C,-4.19%
8,O=S(=O)(Nc1ccccc1-n1cccc1)c1ccc(F)cc1,-0.425%
9,COc1ccc(C2CC(c3ccc(Cl)cc3)=NN2c2ccccc2)c(OC)c1 (centres unmarked),-2.51%
10,CN(C)c1ccc(C2C=Cc3ccccc3N2C(=O)c2ccccc2)cc1 (centres unmarked),1.74%
11,CC1=C(C(=O)OCC2CCCCC2)C(c2ccc(Br)cc2)NC(=O)N1 (centres unmarked),1.27%
12,Cc1c(C(=O)O)cccc1N1C(=O)c2ccc(C(=O)O)cc2C1=O,-4.97%
13,CSc1cnc(Nc2nc(-c3ccc(Br)cc3)cs2)nc1,-0.884%
14,Cc1cc(=O)oc2cc3occ(C(C)(C)C)c3cc12,0.558%
15,O=C(c1ccco1)N1CCN(C(=O)c2cnn(-c3ccc(Cl)cc3)c2C2CCNCC2)CC1,0.536%
16,CC(C)Oc1ccc(C(=O)C2=C(O)C(=O)N(CCN(C)C)C2c2cccnc2)cc1 (centres unmarked),-0.564%
17,Cc1ccc(S(=O)(=O)Nc2ccccc2/N=C/c2ccccc2)cc1,-1.62%
18,COc1ccc(N/C=C(/C#N)c2nc(-c3cccs3)cs2)cc1,-1.22%
19,CC1(C)CC(=O)C2=C(C1)OC(N)=C(C#N)C2c1cc(Cn2cnc3ccccc32)cs1 (centres unmarked),7.05%
20,Cc1ccc(NC(=O)c2c(C)nc3ccccn23)cc1C,1.14%
21,Cc1nc2nc(NC(=O)C(C)Oc3ccccc3)nn2c(O)c1Cc1ccccc1 (centres unmarked),-3.31%
22,CCCNC(=O)c1cc(-c2ccc(C)s2)nc2ccccc12,-5.88%

row,SMILES,% Inhibition @ 10 uM
1,CCc1ccc(S(=O)(=O)c2nnn(-c3ccc(F)c(Cl)c3)c2N)cc1,4.85%
2,O=S(=O)(c1cccc2nonc12)N1CCN(C(c2ccccc2)c2ccccc2)CC1,1.94%
3,Cc1ccc(C(C(=O)NC2CCCC2)N2CC(C)CC(C)C2)cc1 (centres unmarked),7.99%
4,[O-][n+]1cccc2c(Br)cc(Br)c(O)c21,4.41%
5,O=C1c2nccnc2C(=O)N1c1nccs1,-1.08%
6,Oc1ccc(Cc2nc3ccccc3[nH]2)cc1,0.565%
7,C=CCOc1cccc(/C=C2\C(=O)N(Cc3ccc(C)cc3)C(C)=C2C(=O)OC)c1,0.27%
8,COc1cccc(CN(C(=O)c2oc3ccc(Cl)cc3c2C)C2CCS(=O)(=O)C2)c1 (centres unmarked),2.02%
9,CC1CCC(C(C)C)C(OCC(O)CN2CCc3ccccc3C2)C1 (centres unmarked),2.78%
10,CC(C)c1ccc(C2=CC(c3c(F)cccc3Cl)n3ncnc3N2)cc1 (centres unmarked),0.219%
11,COCCNC(=O)CN1CCN(Cc2ccc(C)cc2)C1=O,-2.7%
12,Nc1cccc(C(=O)Nc2cccc(C(=O)NC3CCCCC3)c2)c1,0.245%
13,O=C(Nc1ccc(NC(=O)c2ccccc2Cl)cc1)c1ccc2c(c1)OCCO2,-8.92%
14,N#CCCn1nc(-c2ccccc2)cc1O,-1.77%
15,CC(C)(C)c1ccc(OCC(O)CN2C(=O)c3ccccc3C2=O)cc1 (centres unmarked),0.131%
16,FC(F)(F)c1cccc(CN2CCN(c3ccccc3Cl)CC2)c1,2.47%
17,CCOc1ccc(-n2cccc2/C=C2/C(=O)NC(=O)N(Cc3ccco3)C2=O)cc1,-1.54%
18,N#CCNC(=O)[C@H](CC1CCCCC1)NC(=O)NC1CCCCC1,1.35%
19,O=C(c1ccccc1Br)N1CCN(c2ccccc2)CC1,-2.12%
20,CCOC(=O)c1cc(-c2ccc(N)cc2)nc2ccc(Br)cc12,5.35%
21,Cc1noc(C)c1C(c1ccccc1)S(=O)(=O)c1ccccc1 (centres unmarked),1.67%
